Reference: the supplement of paper PMC3724861
The other results are listed elsewhere or left out.

What follows are sequences tested on T1, Caupolican (Caup) homeodomain DNA-binding domain (assay: PBM E-score (8-mer, recovered from the published 9-mer minima) (E-score (dimensionless, -0.5 to 0.5)); Drosophila protein; higher = stronger relative binding preference, active = 0.31 or more).
T1 sequence: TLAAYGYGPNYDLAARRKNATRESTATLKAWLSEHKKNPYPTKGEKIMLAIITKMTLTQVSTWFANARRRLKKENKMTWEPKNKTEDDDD
Method in brief: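 Caup's homeodomain DNA-binding domain (residues 214-303) was produced by in vitro transcription and translation and applied at 100 nM to custom-designed protein binding microarrays. Each value is an enrichment score giving relative binding preference for a short DNA word; higher means stronger. Published 9-mer scores were the minimum of their two constituent 8-mer scores, and the 8-mer values were recovered from those minima. A cutoff of 0.31 marks candidate binding sequences.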

Row | Sequence | PBM E-score
1 | AGGTGCCG | inactive: -0.137
2 | GATATTGC | inactive: 0.0829
3 | CCCCACCG | inactive: -0.216
4 | GATAATAA | inactive: 0.0864
5 | CGGAAGTA | inactive: -0.0468
6 | CGGGCATC | inactive: -0.126
7 | GAAAACCC | inactive: -0.0587
8 | CGTTCTTC | inactive: -0.0542
9 | GCGAAGAC | inactive: -0.112
10 | AGCCCCAG | inactive: -0.197
11 | AATGAGCA | inactive: 0.112
12 | AATTCATC | inactive: -0.0346
13 | GTTCACCA | inactive: 0.0226
14 | AGTAGTCG | inactive: 0.0743
15 | CCCAACCA | inactive: 0.0519
16 | ACAGGTTA | inactive: 0.214
17 | ACGGGAGA | inactive: -0.11
18 | ATTCAAAC | inactive: 0.172
19 | GCTGTGAA | inactive: 0.0532
20 | CCTTGCAA | inactive: -0.0994
21 | TGCGTAAA | inactive: 0.0292
22 | ATGTCCAA | inactive: 0.295
23 | TATGCTCA | inactive: 0.124

Row | Sequence | PBM E-score
24 | AATAAGAG | inactive: -0.0344
25 | CCCAAGGG | inactive: -0.297
26 | ACCGGGAC | inactive: -0.148
27 | GTGACGAA | inactive: -0.0266
28 | AGTCCGAA | inactive: -0.0068
29 | ATAGTTGG | inactive: -0.0615
30 | ACCAATGA | ≥ 0.134
31 | CACCATTC | inactive: 0.0158
32 | AATTTTAT | inactive: 0.0804
33 | AGGAGTAC | inactive: 0.0428
34 | CTAGCTGC | inactive: -0.163
35 | CAAGTTTC | inactive: 0.0367
36 | ACCATGCT | inactive: 0.14
37 | CCGTCGGA | inactive: -0.129
38 | GGCTGCTA | inactive: -0.0763
39 | GACCAATA | inactive: 0.149
40 | CCGCCCTC | inactive: -0.219
41 | GCACTAGC | inactive: -0.135
42 | CAACTCGG | inactive: -0.0136
43 | TCCATTCA | inactive: 0.0186
44 | AGAGCAGC | inactive: -0.0652
45 | ACCCACAA | inactive: 0.0099
46 | GACTGACC | inactive: -0.136

Row | Sequence | PBM E-score
47 | ACCTCCCA | inactive: -0.134
48 | AAACTTGC | inactive: 0.0177
49 | ATGTTCTA | inactive: 0.283
50 | AGCGGTCG | inactive: -0.217
51 | ATACGTCA | inactive: 0.111
52 | GACGACGC | inactive: -0.0708
53 | CGTGTCAC | active: 0.334
54 | CACGTACC | inactive: 0.0545
55 | ACCAGCCA | ≥ -0.0176
56 | ATCGGCCA | inactive: -0.173
57 | ACCCACTC | inactive: -0.155
58 | CCCCAGAG | inactive: -0.338
59 | AATTGACT | inactive: 0.0825
60 | CAGGACTC | inactive: -0.0134
61 | AAAGGTGT | inactive: 0.0733
62 | CCTTATTA | inactive: 0.091
63 | AAGGCATT | inactive: -0.082
64 | AGCTCGTA | inactive: 0.024
65 | TGCATGCA | inactive: 0.0646
66 | ACTACTAC | inactive: 0.218
67 | ATCGTCTC | inactive: -0.0221
68 | AAGGTTAC | inactive: -0.032
69 | AAATGGCT | inactive: -0.0421

Row | Sequence | PBM E-score
70 | ATTCAATG | inactive: 0.138
71 | TACAGCGA | inactive: 0.0762
72 | CGGGTGTA | inactive: 0.135
73 | GCTTTCCC | inactive: -0.189
74 | CTTGTACC | active: 0.389
75 | ATGACGCA | ≥ 0.0873
76 | CTCAACGA | inactive: -0.00451
77 | ATGGGAGG | inactive: -0.139
78 | GCCCGGCA | inactive: -0.324
79 | ACGTACAA | inactive: 0.288
80 | CTTTAGGC | inactive: -0.0888
81 | CCCTAGCC | inactive: -0.247
82 | CAGAGTCC | inactive: -0.0925
83 | GAATCCTC | inactive: -0.138
84 | CCCAGCTC | inactive: -0.226
85 | CGTGGCAC | ≥ 0.00683
86 | CCCACTAA | inactive: -0.044
87 | ACACATCT | inactive: 0.19
88 | AGCTTCTA | inactive: -0.075
89 | AATAAGTG | inactive: 0.0304
90 | AAGGTCGG | inactive: -0.117
91 | CCAGTGGC | inactive: -0.119
92 | TAAAATGA | inactive: 0.12

Row | Sequence | PBM E-score
93 | GGGCTGAC | inactive: -0.108
94 | AAGTAGAG | inactive: 0.136
95 | ACGGGTAC | inactive: 0.103
96 | CTATTACC | inactive: 0.0284
97 | CGTTCGAC | inactive: -0.0191
98 | ACCGACTC | inactive: -0.0618
99 | ATGACCCC | inactive: -0.046
100 | AGAAATGA | inactive: 0.049
101 | TACCAGAA | inactive: 0.121
102 | GGATCCCA | inactive: -0.0305
103 | TAGACCAA | inactive: 0.0626
104 | GCACCTAC | inactive: -0.115
105 | CAGTCAAG | inactive: 0.0123
106 | AGGTTAGC | inactive: -0.0686
107 | AGAACACA | active: ≥ 0.317
108 | CGAACATA | active: 0.343
109 | CTATGTGA | inactive: 0.137
110 | ATTGCGCC | inactive: -0.154
111 | AGCGGCTA | inactive: -0.14
112 | AGACATAG | inactive: 0.164
